The shares of active, inactive and inconclusive entries below differ from those in the screen. For part of these data: Potencies of inconclusive entries are left out as doubtful fits. The source made the active and inactive calls. Unless noted, calls come from the whole dose curve; as a rule, active = well fitted curve in the direction sought with a large enough effect in the repeat runs; inconclusive = weak or mixed curves; inactive = no such curve, though single readings can be large; an effect the other way counts as inactive or inconclusive.
Tests used:
[1] = qHTS RealTime-Glo MT Cell Viability Assay in HEK293 cells - 8 hour (AID 1224887); note: nearly all actives have a fitted effect of over 50% in size; note: potency is the fitted concentration of half-maximal effect
Procedure, shortened: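 Real-time viability in HEK293: signal arises when living cells convert a prosubstrate for NanoLuc in the medium, so luminescence tracks viable cell number. Compound (23 nL, DMSO) added 5 h post-seeding; kinetic reads at 0–40 h, 37 C.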

[2] = qHTS assay to identify small molecule antagonists of the androgen receptor (AR) signaling pathway using the MDA cell line in the presence of 0.5 nM R1881 - cell viability counter screen (AID 1259242); note: nearly all actives have a fitted effect of over 45% in size; note: potency is the fitted concentration of half-maximal effect
Procedure, shortened: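 Steps: plate MDA-kb2 cells, rest 5 hr at 37C without CO2; pin in compounds in DMSO; add R1881 to 0.5 nM final; incubate 16 hr; add CellTiter-Fluor, 30 min; read fluorescence.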

[3] = qHTS assay to identify small molecule antagonists of the sonic hedgehog signaling (Shh) pathway (AID 1259369; calls by dose curve; note: % is set by controls: 0 for no effect and ±100 for the full control effect; nearly all actives have a fitted effect of over 45% in size)
Procedure, shortened: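 Cells are plated and held 4hr at 37 C, compounds (DMSO) are pinned in, conditioned medium is added to stimulate the pathway, and after 24hr luciferase reagent is added for 30min before luminescence is read.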

[4] = target: Estrogen receptor beta (Homo sapiens) (UniProt Q92731); assay: qHTS assay to identify small molecule agonists of the estrogen receptor beta (ER-beta) signaling pathway (AID 1259377; active = well fitted activation curve with a large enough effect in the signal ratio in the repeat runs, not every such curve was filed as active; inconclusive = weak or mixed curves, or effect the other way; the % refers to the signal ratio; note: potency is the fitted concentration of half-maximal effect; for activation: % is set by controls: 0 for no effect and ±100 for the full control effect); details: ER-beta-UAS-bla HEK293T, beta-lactamase FRET ratio, 16 h; activation: at 92.4 µM (top of the series) unless noted
Procedure, shortened: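 ER-beta-UAS-bla HEK293T (GripTite) cells carrying a UAS-driven beta-lactamase reporter, in medium with 2% charcoal-stripped FBS, were exposed to compounds for 16 hr at 37C; LiveBLAzer B/G FRET substrate was then added and fluorescence read after 2 hours at room temperature.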

[5] = target: Estrogen receptor beta (Homo sapiens) (UniProt Q92731); assay: qHTS assay to identify small molecule antagonists of the estrogen receptor beta (ER-beta) signaling pathway (AID 1259378; active = well fitted inhibition curve with a large enough effect in the signal ratio in the repeat runs, not every such curve was filed as active; inconclusive = weak or mixed curves, or effect the other way; inactive = no such curve, though single readings can be large or run the other way; the % refers to the signal ratio; note: potency is the fitted concentration of half-maximal effect; for activity, negative = inhibition: % is set by controls: 0 for no effect and ±100 for the full control effect); details: ER-beta-UAS-bla HEK293T, beta-lactamase FRET ratio, 16 h; activity, negative = inhibition: at 92.4 µM (top of the series) unless noted
Procedure, shortened: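 ER-beta-UAS-bla HEK293T (GripTite) cells in 2% charcoal-stripped FBS medium were preincubated 6 hr at 37C, dosed with compound, then stimulated with 1 nM E2 (final) for 16 hr; beta-lactamase reporter read by B/G FRET fluorescence after 2 hr substrate loading.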

[6] = qHTS assay to identify small molecule HDAC inhibitors - cell viability counter screen (AID 1259365); note: potency is the fitted concentration of half-maximal effect; nearly all actives have a fitted effect of over 50% in size
Procedure, shortened: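 Wild-type HCT-116 cells were seeded at 1,500 per well, incubated overnight at 37 C, then exposed to compounds in DMSO for 2hr. Viability was read by CellTiter-Glo luminescence after 30min at room temperature.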

[7] = qHTS assay to identify small molecule agonists of the sonic hedgehog signaling (Shh) pathway (AID 1259368; calls by dose curve; note: potency is the fitted concentration of half-maximal effect; nearly all actives have a fitted effect of over 15% in size)
Procedure, shortened: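 Cells of a mouse NIH/3T3 clone stably expressing luciferase under the Gli1 transcriptional response element are exposed to test chemicals for 24 hr at 37 C. Pathway activation is detected as a rise in luminescence.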

[8] = qHTS assay to identify small molecule agonists of the androgen receptor (AR) signaling pathway in the presence of an antagonist - cell viability counter screen (AID 1259379); note: potency is the fitted concentration of half-maximal effect; nearly all actives have a fitted effect of over 25% in size
Procedure, shortened: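 Cytotoxicity is assessed by CellTiter-Fluor in MDA-kb2 cells carrying an MMTV-driven luciferase reporter. Cells receive 3.0uM nilutamide plus compounds at 15 concentrations and incubate 16 hr at 37C without CO2 before fluorescence reading.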

[9] = A CellTox Green Cytotoxicity Assay to monitor cytotoxicity in HepG2 cells - 8 hour (AID 1224890); note: potency is the fitted concentration of half-maximal effect; nearly all actives have a fitted effect of over 45% in size
Procedure, shortened: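 Cells and non-lytic dye reagent are dispensed together (600 HepG2 cells/well) and incubated 5 h before DMSO compound transfer. Kinetic fluorescence is then recorded in the same wells during 40 h at 37 C.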

[10] = qHTS assay to identify small molecule antagonists of the estrogen receptor alpha (ER-alpha) signaling pathway using the BG1 cell line in the presence of 0.1 nM 17-beta-estradiol - cell viability counter screen (AID 1259241); note: potency is the fitted concentration of half-maximal effect; nearly all actives have a fitted effect of over 40% in size
Procedure, shortened: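 VM7Luc4E2 cells (endogenous ER-alpha, 4×ERE-luciferase), hormone-starved 5 days in charcoal-stripped FBS, were treated with compounds plus 0.1 nM 17beta-estradiol for 22 hr at 37C; viability read in same wells as CellTiter-Fluor live-cell protease fluorescence.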

[11] = qHTS assay to identify small molecule HDAC inhibitors (AID 1259364);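 note: wild-type HCT-116 cells with endogenous class I/II HDAC activity; potency is the fitted concentration of half-maximal effect; nearly all actives have a fitted effect of over 45% in size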
Procedure, shortened: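 Cells (HCT-116, wild type) are seeded at 1,500 per well, incubated overnight, treated with compound in DMSO for 2 hr, then developed with HDAC-Glo I/II reagent for 30 min at room temperature.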

[12] = qHTS assay to identify small molecule agonists of the sonic hedgehog signaling (Shh) pathway - cell viability counter screen (AID 1259366); note: potency is the fitted concentration of half-maximal effect; nearly all actives have a fitted effect of over 50% in size
Procedure, shortened: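 NIH/3T3-derived 3T3 Gli1-Luc cells (stable Gli1-responsive firefly luciferase reporter) were seeded, rested 4 hr at 37 C/5% CO2, then exposed to compounds in DMSO for 24 hr; viability was read by CellTiter-Fluor fluorescence in the same wells.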
Tags give direction and shape of the fitted curve or compound fluorescence and quenching.

Sequence of UniProt Q92731 (Q92731 whole entry, looked up): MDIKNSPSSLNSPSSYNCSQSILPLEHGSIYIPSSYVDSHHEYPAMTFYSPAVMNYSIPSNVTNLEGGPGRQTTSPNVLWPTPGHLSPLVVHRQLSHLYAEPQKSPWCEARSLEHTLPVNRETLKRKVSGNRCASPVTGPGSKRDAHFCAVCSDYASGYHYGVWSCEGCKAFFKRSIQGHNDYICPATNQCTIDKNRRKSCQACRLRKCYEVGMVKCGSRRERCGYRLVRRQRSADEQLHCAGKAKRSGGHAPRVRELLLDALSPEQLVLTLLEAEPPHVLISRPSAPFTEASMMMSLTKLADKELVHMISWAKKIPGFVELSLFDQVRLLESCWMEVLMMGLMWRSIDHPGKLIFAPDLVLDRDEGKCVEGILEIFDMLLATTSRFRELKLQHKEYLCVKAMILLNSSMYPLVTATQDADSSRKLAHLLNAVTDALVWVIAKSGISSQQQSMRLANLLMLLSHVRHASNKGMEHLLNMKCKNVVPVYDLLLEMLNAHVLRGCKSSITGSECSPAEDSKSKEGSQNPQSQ

Cc1cc(C)c(C(=O)P(=O)(C(=O)c2c(C)cc(C)cc2C)c2ccccc2)c(C)c1
Potency [1]: inactive | Potency [2]: inactive | Potency [3]: inactive | Potency [4]: inactive | activity, negative = inhibition [5]: inconclusive: -23.2%

S=C=NCCc1ccccc1
Potency [1]: inconclusive [cytotoxic, partial curve] | Potency [6]: inconclusive [rising, partial curve] | Potency [7]: active: 61.3 µM | Potency [5]: active: 30.7 µM | Potency [8]: inconclusive [cytotoxic, partial curve]

CC(C)N(C(=O)SC/C(Cl)=C/Cl)C(C)C
Potency [1]: inconclusive [cytotoxic, single point] | activity, negative = inhibition [5]: inconclusive: 23.3%

Cc1cc(Cl)ccc1OC(C)C(=O)O (configuration not stated)
Potency [1]: inactive | Potency [5]: inactive

CC(C)C1CCC(Cc2ccc(Cl)cc2)C1(O)Cn1cncn1 (configuration not stated)
Potency [1]: active: 13.7 µM | Potency [9]: active: 54.4 µM | Potency [2]: inconclusive [cytotoxic, single point] | Potency [5]: active: 24.1 µM | Potency [8]: active: 67.9 µM

COP(=S)(OC)Oc1ccc([N+](=O)[O-])cc1Cl
Potency [1]: inconclusive [cytotoxic, partial curve, poor fit] | Potency [10]: inconclusive [cytotoxic, full curve] | Potency [2]: inconclusive [cytotoxic, partial curve] | Potency [11]: inconclusive [inhibitor, partial curve] | Potency [12]: inconclusive [cytotoxic, partial curve] | Potency [3]: inactive | Potency [4]: inconclusive [rising, full curve] | activity, negative = inhibition [5]: inconclusive: 19.5%

Source: PubChem BioAssay (Tox21)
